# Experimental data: patent publication US20090196872A1
# B1: human anti-M2 monoclonal antibody N547 (antibody)
# chain 1: [about 100 residues cut from this listing]HLRYFDWLSDYWGQGTLVTVSS
# chain 2: QSVLTQPPSMSAAPGQKVTISCSGSSSNIGNNYISWYQQLPGTAPKVLIYDNNKRPSGIPDRFSGSKSGTSATLGITGLQTGDEADYYCGSWDSSLSAGVFGTGTKVTVLG
# Molecular target: M2 protein expressed on A/HK/1/68 infected MDCK cells (influenza A virus A/HK/1/68)
# Experiment: cell-based ELISA, half-saturating antibody concentration
# Conditions: remark: other sources report otherwise
# Sequence of M2 protein expressed on A/HK/1/68 infected MDCK cells (influenza A virus A/HK/1/68) (Q77IM6 whole entry): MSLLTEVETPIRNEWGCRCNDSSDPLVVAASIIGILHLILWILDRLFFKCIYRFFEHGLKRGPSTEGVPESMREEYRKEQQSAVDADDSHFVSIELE
binder,measurement,value
B1,Kd,1.22 nM
